Data published in the supplement of paper PMC4967469.

Compound: NC(=O)[C@@H](CCC(F)(F)F)N(Cc1ccc(-c2ncon2)cc1F)S(=O)(=O)c1ccc(Cl)cc1 [BMS-708163]
Assay: Viability of human cancer cell lines after 72 h of drug (GDSC screen)
Details: screen: GDSC drug entry 205; top dose inferred
Procedure: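 Human cancer cell lines in 384-well plates, medium with 10% serum, drug for 72 h over a 256-fold dose range (nine 2-fold or five 4-fold steps up to the top dose). Adherent lines were fixed and stained with the nucleic acid dye Syto60, suspension lines read with resazurin; signal relative to control wells, capped at 0 and 100%. One two-parameter sigmoid per drug and line, fitted in a mixed model over all curves with the slope shared within a line.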

Cell Line | AUC | IC50 [µM]
NCI-H1869 (lung squamous cell carcinoma, adherent, top dose 10.24 µM) | 0.984 | > 10.2
NCI-H1876 (small cell lung carcinoma, adherent, top dose 10.24 µM) | 0.986 | > 10.2
NCI-H1915 (large cell lung carcinoma, adherent, top dose 10.24 µM) | 0.981 | > 10.2
NCI-H1944 (lung adenocarcinoma, adherent, top dose 10.24 µM) | 0.983 | > 10.2
NCI-H1975 (lung adenocarcinoma, adherent, top dose 2.56 µM) | 0.983 | > 2.56
NCI-H1993 (lung adenocarcinoma, adherent, top dose 10.24 µM) | 0.975 | > 10.2
NCI-H2009 (lung adenocarcinoma, adherent, top dose 10.24 µM) | 0.986 | > 10.2
NCI-H2023 (lung adenocarcinoma, adherent, top dose 10.24 µM) | 0.982 | > 10.2
NCI-H2029 (small cell lung carcinoma, adherent, top dose 10.24 µM) | 0.992 | > 10.2
NCI-H2030 (lung adenocarcinoma, adherent, top dose 10.24 µM) | 0.981 | > 10.2
NCI-H2052 (mesothelioma, adherent, top dose 10.24 µM) | 0.975 | > 10.2
NCI-H2081 (small cell lung carcinoma, suspension, top dose 10.24 µM) | 0.989 | > 10.2
NCI-H2085 (lung adenocarcinoma, adherent, top dose 10.24 µM) | 0.986 | > 10.2
NCI-H2087 (lung adenocarcinoma, semi-adherent, top dose 2.56 µM) | 0.983 | > 2.56
NCI-H2110 (non-small cell lung carcinoma, adherent, top dose 10.24 µM) | 0.985 | > 10.2
NCI-H2122 (lung adenocarcinoma, adherent, top dose 2.56 µM) | 0.989 | > 2.56
NCI-H2135 (non-small cell lung carcinoma, adherent, top dose 10.24 µM) | 0.989 | > 10.2
NCI-H2141 (small cell lung carcinoma, suspension, top dose 10.24 µM) | 0.984 | > 10.2
NCI-H2170 (lung squamous cell carcinoma, adherent, top dose 10.24 µM) | 0.985 | > 10.2
NCI-H2171 (small cell lung carcinoma, suspension, top dose 10.24 µM) | 0.988 | > 10.2
NCI-H2172 (non-small cell lung carcinoma, adherent, top dose 10.24 µM) | 0.983 | > 10.2
NCI-H2196 (small cell lung carcinoma, adherent, top dose 10.24 µM) | 0.985 | > 10.2
NCI-H2227 (small cell lung carcinoma, semi-adherent, top dose 10.24 µM) | 0.976 | > 10.2

Cell Line | AUC | IC50 [µM]
NCI-H2228 (lung adenocarcinoma, adherent, top dose 10.24 µM) | 0.95 | > 10.2
NCI-H2291 (lung adenocarcinoma, adherent, top dose 10.24 µM) | 0.981 | > 10.2
NCI-H2342 (lung adenocarcinoma, adherent, top dose 10.24 µM) | 0.986 | > 10.2
NCI-H2347 (lung adenocarcinoma, adherent, top dose 10.24 µM) | 0.976 | > 10.2
NCI-H2405 (lung adenocarcinoma, adherent, top dose 10.24 µM) | 0.985 | > 10.2
NCI-H2444 (non-small cell lung carcinoma, adherent, top dose 10.24 µM) | 0.988 | > 10.2
NCI-H2452 (mesothelioma, adherent, top dose 10.24 µM) | 0.984 | > 10.2
NCI-H3122 (lung adenocarcinoma, adherent, top dose 10.24 µM) | 0.987 | > 10.2
NCI-SNU-1 (stomach, suspension, top dose 10.24 µM) | 0.982 | > 10.2
NCI-SNU-5 (stomach, suspension, top dose 10.24 µM) | 0.989 | > 10.2
NCI-SNU-16 (stomach, suspension, top dose 10.24 µM) | 0.991 | > 10.2
NEC8 (testis, adherent, top dose 10.24 µM) | 0.991 | > 10.2
NH-12 (neuroblastoma, adherent, top dose 10.24 µM) | 0.985 | > 10.2
NKM-1 (acute myeloid leukaemia, suspension, top dose 10.24 µM) | 0.984 | > 10.2
NMC-G1 (glioma, adherent, top dose 10.24 µM) | 0.898 | > 10.2
NOMO-1 (acute myeloid leukaemia, suspension, top dose 10.24 µM) | 0.982 | > 10.2
NOS-1 (osteosarcoma, adherent, top dose 10.24 µM) | 0.964 | > 10.2
NTERA-2 cl.D1 (testis, adherent, top dose 10.24 µM) | 0.985 | > 10.2
NU-DUL-1 (B-cell lymphoma, suspension, top dose 10.24 µM) | 0.988 | > 10.2
NUGC-3 (stomach, adherent, top dose 10.24 µM) | 0.979 | > 10.2
NUGC-4 (stomach, adherent, top dose 10.24 µM) | 0.984 | > 10.2
NY (osteosarcoma, adherent, top dose 10.24 µM) | 0.983 | > 10.2
OACM5-1 (oesophagus, semi-adherent, top dose 10.24 µM) | 0.986 | > 10.2

Cell Line | AUC | IC50 [µM]
OACp4C (oesophagus, adherent, top dose 10.24 µM) | 0.98 | > 10.2
OAW-28 (ovary, adherent, top dose 10.24 µM) | 0.968 | > 10.2
OAW-42 (ovary, adherent, top dose 10.24 µM) | 0.986 | > 10.2
OC-314 (ovary, adherent, top dose 10.24 µM) | 0.99 | > 10.2
OCI-AML2 (acute myeloid leukaemia, suspension, top dose 10.24 µM) | 0.995 | > 10.2
OCI-AML3 (acute myeloid leukaemia, suspension, top dose 10.24 µM) | 0.978 | > 10.2
OCI-AML5 (acute myeloid leukaemia, suspension, top dose 10.24 µM) | 0.988 | > 10.2
OCI-LY-19 (B-cell lymphoma, suspension, top dose 10.24 µM) | 0.969 | > 10.2
OCI-M1 (acute myeloid leukaemia, suspension, top dose 10.24 µM) | 0.989 | > 10.2
OCUB-M (breast, adherent, top dose 10.24 µM) | 0.971 | > 10.2
OCUM-1 (stomach, adherent, top dose 10.24 µM) | 0.986 | > 10.2
OE19 (oesophagus, adherent, top dose 10.24 µM) | 0.986 | > 10.2
OE21 (oesophagus, adherent, top dose 10.24 µM) | 0.972 | > 10.2
OE33 (oesophagus, adherent, top dose 10.24 µM) | 0.968 | > 10.2
OMC-1 (cervix, adherent, top dose 10.24 µM) | 0.987 | > 10.2
ONS-76 (medulloblastoma, adherent, top dose 10.24 µM) | 0.984 | > 10.2
OPM-2 (myeloma, suspension, top dose 10.24 µM) | 0.991 | > 10.2
OS-RC-2 (kidney, adherent, top dose 10.24 µM) | 0.978 | > 10.2
OSC-19 (head and neck, adherent, top dose 10.24 µM) | 0.986 | > 10.2
OSC-20 (head and neck, adherent, top dose 10.24 µM) | 0.978 | > 10.2
OV-7 (ovary, adherent, top dose 10.24 µM) | 0.973 | > 10.2

Same assay, conditions: top dose 5 µM; screen: GDSC drug entry 1072; top dose inferred

Cell Line | AUC | IC50 [µM]
NCI-H2066 (small cell lung carcinoma, adherent) | 0.973 | > 5
NCI-N87 (stomach, adherent) | 0.979 | > 5
OACM5-1 (oesophagus, semi-adherent) | 0.984 | > 5
OACp4C (oesophagus, adherent) | 0.973 | > 5
OC-314 (ovary, adherent) | 0.983 | > 5
OCI-LY7 (B-cell lymphoma, suspension) | 0.989 | > 5
OCUM-1 (stomach, adherent) | 0.955 | > 5
OV-7 (ovary, adherent) | 0.972 | > 5
OV-17R (ovary, adherent) | 0.977 | > 5

By IC50 is meant the dose at which the fit gives 50% viability; a limit (>, <) means that the fit lies beyond the doses tested. The AUC spans the tested range (256-fold, ending at the top dose) of the same fit; values near 1 show little effect. A top dose marked as inferred is not printed in the source and was worked back from the curve model. Where an entry number is given, a second screen of the drug exists; the two often differ.
